# Paper PMC11995724, “Antibiotic target discovery by integrated phenotypic and activity-based profiling of electrophilic fragments” (Cell chemical biology, 2025)
# The whole screen tested about 3,200 compounds, of which about 75 (2%) showed an effect of 50% or more. The list shows a part of the results.
# Tested on: T1, S. aureus MSSA476
# T1 construct: MSSA476
# Set-up: species or system S. aureus MSSA476 (TSB) or V. cholerae SAD30 (LB); 384-well bacterial growth screen at 25 uM, OD600 relative to DMSO control
# Settings: relative growth, OD600, TSB; 25 µM; inhibitor
row,SMILES,% of control remaining
1,"O=C(CCl)N1CCCCc2ccc([N+](=O)[O-])cc21 [5-I18, 2-chloro-1-(8-nitro-2,3,4,5-tetrahydro-1H-1-benzazepin-1-yl)ethan-1-one]",104.189%
2,"C=CC(=O)N1CCC(C(=O)N2CCCC(C3OCCO3)C2)CC1 (stereo not shown) [2-L16, 1-{4-[3-(1,3-dioxolan-2-yl)piperidine-1-carbonyl]piperidin-1-yl}prop-2-en-1-one]",110.705%
3,"C[C@@H](NC(=O)CCl)c1ccccc1 [6-O20, 2-chloro-N-[(1R)-1-phenylethyl]acetamide]",101.415%
4,"O=C(CCl)c1c[nH]c2ccccc12 [10-B05, 2-chloro-1-(1H-indol-3-yl)ethan-1-one]",89.375%
5,"O=C(CCl)Nc1ccccc1SCc1ccccc1 [4-J05, N-[2-(benzylsulfanyl)phenyl]-2-chloroacetamide]",95.2835%
6,"CC(Cl)C(=O)NC1(c2nnc[nH]2)CCC1 (stereo not shown) [6-F21, 2-chloro-N-[1-(4H-1,2,4-triazol-3-yl)cyclobutyl]propanamide]",102.78%
7,"C=CC(=O)N1CCC(C(=O)NCCc2cc[nH]n2)CC1 [3-E07, 1-(prop-2-enoyl)-N-[2-(1H-pyrazol-3-yl)ethyl]piperidine-4-carboxamide]",111.101%
8,"O=C(CCl)NCCCc1ccccc1 [4-N04, 2-chloro-N-(3-phenylpropyl)acetamide]",77.7513%
9,"Cc1ccc(C=C(C#N)C(=O)Nc2cccc3ncccc23)cc1 [9-J05, 2-cyano-3-(4-methylphenyl)-N-(quinolin-5-yl)prop-2-enamide]",115.955%
10,"C=CC(=O)NC1CCOc2c(F)cccc21 (stereo not shown) [1-D05, N-(8-fluoro-3,4-dihydro-2H-1-benzopyran-4-yl)prop-2-enamide]",100.22%
11,"C=CC(=O)Nc1ccc(O)c(C(=O)O)c1 [1-G06, 2-hydroxy-5-(prop-2-enamido)benzoic acid]",91.4286%
12,"CCc1ccc(CNC(=O)CCl)s1 [6-K05, 2-chloro-N-[(5-ethylthiophen-2-yl)methyl]acetamide]",81.2683%
13,"COc1ccc(NC(=O)CCl)cc1S(=O)(=O)N1CCOCC1 [4-D15, 2-chloro-N-[4-methoxy-3-(morpholine-4-sulfonyl)phenyl]acetamide]",121.582%
14,"O=C(CCl)Nc1nc(-c2ccccc2)cs1 [4-L04, 2-chloro-N-(4-phenyl-1,3-thiazol-2-yl)acetamide]",143.306%
15,"C=CC(=O)NCCNC(=O)[C@@]12CC[C@@](C)(C(=O)O1)C2(C)C [2-J18, N-(2-{[(1S,4R)-4,7,7-trimethyl-3-oxo-2-oxabicyclo[2.2.1]heptan-1-yl]formamido}ethyl)prop-2-enamide]",119.408%
16,"Cc1ccc(C=C(C#N)C(=O)Nc2ccccc2C(=O)O)s1 [9-K08, 2-[2-cyano-3-(5-methylthiophen-2-yl)prop-2-enamido]benzoic acid]",38.0524%
17,"N#CC(=Cc1c(F)cccc1F)C(=O)Nc1ccccc1F [9-J12, 2-cyano-3-(2,6-difluorophenyl)-N-(2-fluorophenyl)prop-2-enamide]",108.764%
18,"O=C(c1cc(=O)[nH]c2ccc([N+](=O)[O-])cc12)N1CCSSCC1 [10-B11, 4-(1,2,5-dithiazepane-5-carbonyl)-6-nitro-1,2-dihydroquinolin-2-one]",85.9375%
19,"N#CC(=Cc1ccc2ccccc2c1)C(=O)NC(N)=O [9-K10, {2-cyano-2-[(naphthalen-2-yl)methylidene]acetyl}urea]",99.176%
20,"C=CC(=O)N1CC(C)(C)c2cc(Cl)ccc21 [1-L14, 1-(5-chloro-3,3-dimethyl-2,3-dihydro-1H-indol-1-yl)prop-2-en-1-one]",121.67%
21,"CC(=O)Nc1ccc(C(=O)C(C)Cl)cc1 (stereo not shown) [10-K06, N-[4-(2-chloropropanoyl)phenyl]acetamide]",112.188%
22,"C=CC(=O)N1CCN(S(=O)(=O)Cc2ccon2)CC1 [1-J07, 1-{4-[(1,2-oxazol-3-yl)methanesulfonyl]piperazin-1-yl}prop-2-en-1-one]",129.758%
23,"C=CC(=O)N1CCCC2(CCCOC2)C1 (stereo not shown) [3-E11, 1-{2-oxa-8-azaspiro[5.5]undecan-8-yl}prop-2-en-1-one]",83.9356%

row,SMILES,% of control remaining
1,"Cc1nnsc1CNC(=O)C(C)Cl (stereo not shown) [7-M07, 2-chloro-N-[(4-methyl-1,2,3-thiadiazol-5-yl)methyl]propanamide]",104.867%
2,"Cc1ccc(C=C(C#N)C(=O)NC(C)C)s1 [9-O11, 2-cyano-3-(5-methylthiophen-2-yl)-N-(propan-2-yl)prop-2-enamide]",102.472%
3,"CC(Cl)C(=O)Nc1cccc(Cl)c1Cl (stereo not shown) [4-L13, 2-chloro-N-(2,3-dichlorophenyl)propanamide]",108.623%
4,"CC(Cl)C(=O)Nc1nc2ccccc2s1 (stereo not shown) [5-K05, N-(1,3-benzothiazol-2-yl)-2-chloropropanamide]",80.51%
5,"CC(Cl)C(=O)NCC1COc2ccccc2O1 (stereo not shown) [4-F13, 2-chloro-N-[(2,3-dihydro-1,4-benzodioxin-2-yl)methyl]propanamide]",104.05%
6,"C=CC(=O)NC(C)c1nnnn1C1CC1 (stereo not shown) [1-M09, N-[1-(1-cyclopropyl-1H-1,2,3,4-tetrazol-5-yl)ethyl]prop-2-enamide]",120.264%
7,"COc1ccc(C=C(C#N)C(=O)Nc2ccc(C)c(C)c2)cc1 [8-I05, 2-cyano-N-(3,4-dimethylphenyl)-3-(4-methoxyphenyl)prop-2-enamide]",97.9253%
8,"CC(Cl)C(=O)N1CCCC1c1nccc(C(F)(F)F)n1 (stereo not shown) [7-B11, 2-chloro-1-{2-[4-(trifluoromethyl)pyrimidin-2-yl]pyrrolidin-1-yl}propan-1-one]",93.2496%
9,"CC(Cl)C(=O)N1CCN(c2oc(-c3ccco3)nc2C#N)CC1 (stereo not shown) [7-D13, 5-[4-(2-chloropropanoyl)piperazin-1-yl]-2-(furan-2-yl)-1,3-oxazole-4-carbonitrile]",78.179%
10,"C=CC(=O)NCc1ccc2oc(=O)[nH]c2c1 [3-D14, N-[(2-oxo-2,3-dihydro-1,3-benzoxazol-5-yl)methyl]prop-2-enamide]",117.37%
11,"O=C(CCl)N1N=C(c2ccc(Cl)cc2)CC1c1ccco1 (stereo not shown) [5-L04, 2-chloro-1-[3-(4-chlorophenyl)-5-(furan-2-yl)-4,5-dihydro-1H-pyrazol-1-yl]ethan-1-one]",80.8743%
12,"Cc1ccnc(-c2n[nH]c(C(C)NC(=O)C(C)Cl)n2)c1 (stereo not shown) [7-I10, 2-chloro-N-{1-[3-(4-methylpyridin-2-yl)-1H-1,2,4-triazol-5-yl]ethyl}propanamide]",91.9937%
13,"O=C(Nc1cccc(-c2nnco2)c1)N1CCSSCC1 [10-P09, N-[3-(1,3,4-oxadiazol-2-yl)phenyl]-1,2,5-dithiazepane-5-carboxamide]",103.75%
14,"C=CC(=O)NCCC(=O)N1CCCN(c2cccnn2)CC1 [2-P16, N-{3-oxo-3-[4-(pyridazin-3-yl)-1,4-diazepan-1-yl]propyl}prop-2-enamide]",109.661%
15,"C=CC(=O)N(Cc1cnc(C2CC2)o1)C1CCCCC1C (stereo not shown) [1-D15, N-[(2-cyclopropyl-1,3-oxazol-5-yl)methyl]-N-(2-methylcyclohexyl)prop-2-enamide]",100.571%
16,"C=CC(=O)Nc1cnn2cc(C)cnc12 [1-G19, N-{6-methylpyrazolo[1,5-a]pyrimidin-3-yl}prop-2-enamide]",111.824%
17,"CC(NC(=O)C(C#N)=Cc1ccccc1F)c1ccccc1 (stereo not shown) [8-P16, 2-cyano-3-(2-fluorophenyl)-N-(1-phenylethyl)prop-2-enamide]",79.0041%
18,"C=CCN(Cc1ccc(Cl)s1)C(=O)CCl [5-M05, 2-chloro-N-[(5-chlorothiophen-2-yl)methyl]-N-(prop-2-en-1-yl)acetamide]",83.7887%
19,"CN1C(=O)[C@H](NC(=O)CCl)COc2ccccc21 [7-D04, 2-chloro-N-[(3R)-5-methyl-4-oxo-2,3,4,5-tetrahydro-1,5-benzoxazepin-3-yl]acetamide]",81.3187%
20,"C=CC(=O)N(Cc1ccc2cnn(C)c2c1)CC(C)(C)C [2-O05, N-(2,2-dimethylpropyl)-N-[(1-methyl-1H-indazol-6-yl)methyl]prop-2-enamide]",92.9504%
21,"O=C(CCl)N(Cc1ccnn1C1CCC1)C1CC=CCC1 (stereo not shown) [5-I14, 2-chloro-N-[(1-cyclobutyl-1H-pyrazol-5-yl)methyl]-N-(cyclohex-3-en-1-yl)acetamide]",87.796%
22,"Cc1c(C#N)c(NC(=O)CCl)n(Cc2ccccc2)c1C [4-M21, N-(1-benzyl-3-cyano-4,5-dimethyl-1H-pyrrol-2-yl)-2-chloroacetamide]",121.582%
23,"Cc1ccc(Sc2ccc(NC(=O)CCl)cc2)cc1C [4-G03, 2-chloro-N-{4-[(3,4-dimethylphenyl)sulfanyl]phenyl}acetamide]",104.431%
